172 sequences from article PMC10668032 can be followed below.

The other results are listed elsewhere or left out. At the low end of the ranking the order means little.

The target in the assay is SIX1 homeodomain (reference allele) (UniProt Q15475). In words: universal protein binding microarray. Conditions: Universal all-10-mer PBM (8x60K, AMADID 030236), 300 nM GST-tagged protein, Alexa Fluor 488 anti-GST; buffer, salt, pH and temperature not stated; high values mean tight binding; most listed sequences are background and not binding sites; double strand, one strand shown.
Turning to AGACGCTG, the binding signal is 0.00255 E-score. Regarding CTAAGAGC, the binding signal is -0.0759 E-score.

On to CAATGGCA, for which the binding signal was -0.221 E-score. On to ATATTAAA, for which the binding signal is 0.267 E-score.

Turning to ATGACAGA, the binding signal is 0.00632 E-score. Consider AGTAACCC, for which the binding signal was 0.0937 E-score. In the case of CCTTGTCA, the binding signal is -0.174 E-score.

For CGCGTAGC, the binding signal was -0.158 E-score. On to AGTTAAAT, for which the binding signal is -0.198 E-score. On to CCCCCACC, for which the binding signal is -0.179 E-score. The same measure for ATTTGCGG: -0.246 E-score; for AAATCTAC: 0.0471 E-score; for GCATGGAC: -0.101 E-score. Turning to TGTAAACA, the binding signal is -0.0226 E-score. For the sequence CGAAACGA, the binding signal was -0.0922 E-score.

On to ATAATGAG, for which the binding signal was 0.0287 E-score. Take AATTTGTG: the binding signal came to 0.118 E-score. The same measure for GTGTGACA: 0.139 E-score; for CCTGACGC: -0.0282 E-score; for CGTAGTTA: 0.0451 E-score. Regarding CGGTAGCC, the binding signal is -0.0143 E-score.

Regarding TTATTGAA, the binding signal was -0.163 E-score. Turning to ATCTGTCG, the binding signal is 0.174 E-score. Regarding CCTTAGAG, the binding signal was found to be 0.0921 E-score.

In the case of ATGTGTTA, the binding signal is -0.173 E-score. Consider CAGCAAGA, for which the binding signal is -0.0298 E-score.

As for AGACTCTA, the binding signal is -0.338 E-score. On to CCAGGTCG, for which the binding signal was determined as 0.00395 E-score. On to TACAAACA, for which the binding signal was -0.0533 E-score. In the case of GTGTGATA, the binding signal was determined as 0.411 E-score. On to CAAGGGTA, for which the binding signal is 0.164 E-score. GCATCGGA: the binding signal worked out at 0.161 E-score.

With GGGAATAC, the binding signal is 0.15 E-score. For the sequence GCGTGTCC, the binding signal amounted to 0.0128 E-score. On to CCTTGCCG, for which the binding signal is -0.0987 E-score. On to CGGGCTCC, for which the binding signal was -0.209 E-score. With ACTTGACG, the binding signal was -0.131 E-score. For AGCGAAAG, the binding signal was -0.233 E-score. Take ATACGCAT: the binding signal was determined as 0.349 E-score. Regarding AAAAGGTG, the binding signal stood at 0.0163 E-score. The same measure for GCAGCAGA: -0.0621 E-score. The same measure for CCAATGCC: -0.252 E-score; for AACTGGGG: 0.135 E-score; for GCTTGACC: -0.302 E-score. With AAGCATAA, the binding signal was -0.242 E-score. On to TCCCGGAA, for which the binding signal was -0.0745 E-score. As to AGAAGATC, the binding signal was found to be 0.231 E-score. On to GGTATCAA, for which the binding signal turned out to be 0.486 E-score.

Consider AGCTCTTA, for which the binding signal is -0.179 E-score.

As to ACCATGTG, the binding signal came to 0.0442 E-score. On to CAAAGTGC, for which the binding signal is -0.37 E-score. The same measure for CCAATTGC: -0.237 E-score.

Turning to ACTGAGGC, the binding signal is -0.304 E-score. ATAACCAG: the binding signal was -0.0179 E-score. For GGAATCAC, the binding signal came to 0.0922 E-score. With ACTGTAAT, the binding signal is -0.0694 E-score. In the case of TGATGCCA, the binding signal came to 0.152 E-score. In the case of ACCCGGAA, the binding signal is 0.184 E-score. Take AGAGACTG: the binding signal was -0.122 E-score.

For CTAGCAAG, the binding signal was -0.0469 E-score. Consider AAATCCCC, for which the binding signal was determined as 0.181 E-score. With CTGGCGCC, the binding signal is -0.164 E-score. On to CGGGATAC, for which the binding signal came out at 0.408 E-score. For TCCGACGA, the binding signal came to 0.136 E-score. With ATTGAATG, the binding signal is -0.00868 E-score. For CCGTTGGC the value was -0.132 E-score. With GCGGAGTA, the binding signal stood at 0.228 E-score. Take CCTCTTTA: the binding signal amounted to 0.0511 E-score.

CTGCAGCC: the binding signal was -0.133 E-score. Regarding CAAACTGC, the binding signal was -0.0918 E-score.

GAGTTCAC: the binding signal is -0.108 E-score. With ATACCTAC, the binding signal came out at 0.385 E-score. For CTCTTTCC, the binding signal is -0.225 E-score. In the case of CCGCTGTC, the binding signal was -0.0594 E-score. With AGAGATGC, the binding signal is 0.0241 E-score. Take GATACACC: the binding signal worked out at 0.469 E-score. On to GCAAGAAA, for which the binding signal is -0.124 E-score. For the sequence TGGTTCAA, the binding signal stood at 0.0778 E-score. For the sequence GCGTCCCC, the binding signal is -0.0441 E-score. In the case of GATAATAC, the binding signal stood at 0.406 E-score. As for GAGTGGGC, the binding signal was -0.259 E-score. With CGCGGGAG, the binding signal was 0.0168 E-score. Turning to ATAATGGC, the binding signal is -0.0377 E-score. On to GCGCGCCA, for which the binding signal is -0.278 E-score.

Consider ACTGTTGG, for which the binding signal is -0.0843 E-score. Consider CCTGGCAC, for which the binding signal is -0.2 E-score. Take CTATTCGA: the binding signal was -0.088 E-score.

For the sequence ACCCAGTG, the binding signal was -0.00211 E-score.

Regarding CGAAGCCC, the binding signal is -0.106 E-score. For the sequence AGAGGAAG, the binding signal was -0.0478 E-score. Turning to ATTAATCA, the binding signal was found to be 0.146 E-score.

As to CCGCCGAC, the binding signal is -0.106 E-score. The same measure for GGGATGAA: 0.191 E-score.

In the case of CAATCAGG, the binding signal was 0.108 E-score.

Regarding ACAACCCC, the binding signal was -0.0833 E-score. With ATCATACA, the binding signal amounted to 0.306 E-score. Take CTGTGTGA: the binding signal came out at 0.00741 E-score.

Turning to ACGCGACG, the binding signal was -0.1 E-score. On to AGCTTAAC, for which the binding signal was -0.143 E-score. As for ATGTCATC, the binding signal is -0.129 E-score. On to ACCGGGGG, for which the binding signal was determined as 0.143 E-score.

Take AGGATAGA: the binding signal was 0.0755 E-score. CACTCCTC: the binding signal is -0.102 E-score. The same measure for GTCCATCA: 0.00175 E-score.

For the sequence CGAGCATC, the binding signal is -0.0416 E-score. For the sequence AGGTCTCG, the binding signal amounted to 0.0111 E-score. Take ATGCATAG: the binding signal came to 0.0346 E-score. On to ATCTAAAC, for which the binding signal was 0.132 E-score. Take ACGGCTTA: the binding signal was -0.0594 E-score.

For AGTTATGC, the binding signal is -0.142 E-score. On to CATAGGAA, for which the binding signal is -0.0115 E-score. In the case of CACACGCA, the binding signal is 0.0211 E-score. AGCTTCAT: the binding signal was -0.183 E-score. The same measure for CTGAGTCA: -0.0969 E-score; for CCCCAAAG: -0.257 E-score. For the sequence AGACATAC, the binding signal was determined as 0.00625 E-score. The same measure for ATCGAAAC: 0.2 E-score; for GATCGGAA: 0.167 E-score; for CCGCAGCA: -0.189 E-score. Turning to GGTGCTAC, the binding signal is -0.00308 E-score.

As for ATTCGAGC, the binding signal is -0.00894 E-score.

With TCTAGAAA, the binding signal was -0.104 E-score. TCTCTTAA: the binding signal was -0.0663 E-score. In the case of CAGCGGCG, the binding signal is -0.137 E-score. For CTCGTTAA the value was -0.127 E-score; for GGGGCCGA, -0.195 E-score; for ACCCCTCG, 0.215 E-score.

For the sequence AGGCCAGG, the binding signal was -0.0172 E-score. For AAAGCGTC the value was -0.2 E-score. As for GAGGGGCC, the binding signal was -0.124 E-score.

On to CTTCGCCC, for which the binding signal was -0.26 E-score. In the case of CATAGCGG, the binding signal was 0.048 E-score. Turning to CCGTAATA, the binding signal stood at 0.205 E-score.

With GCTGGACA, the binding signal was -0.192 E-score. Turning to GGTAGTTA, the binding signal was -0.0773 E-score. In the case of AGGTTGAA, the binding signal is -0.00859 E-score.

On to GTCCCCAA, for which the binding signal was -0.128 E-score.

Consider ACCGCATG, for which the binding signal is -0.00694 E-score. For AGAGCTGG the value was 0.0647 E-score; for CCTCGAGG, 0.197 E-score. For GGAGTGCA, the binding signal was -0.019 E-score.

On to CCGCCGGA, for which the binding signal worked out at 0.0602 E-score. The same measure for GCCCAGTA: -0.129 E-score.

For the sequence GCAGATGC, the binding signal is -0.0772 E-score.

Consider CGATCAAG, for which the binding signal stood at 0.043 E-score. For AATATGCC, the binding signal stood at 0.16 E-score.

With CATCTGGG, the binding signal was found to be 0.0392 E-score. On to CCTGGGGA, for which the binding signal was -0.0463 E-score. The same measure for CTGGAAAC: -0.147 E-score; for ACCTATAA: -0.0384 E-score. Regarding ATGGTATA, the binding signal stood at 0.336 E-score.

On to CAGCCTAG, for which the binding signal was -0.136 E-score.

For CATTGCAA, the binding signal is -0.0773 E-score. As to CTTGAGTC, the binding signal is -0.194 E-score.

As to CATGGCCA, the binding signal is -0.0546 E-score.

Regarding ACGCCTAG, the binding signal was -0.107 E-score.

CCCTTCGA: the binding signal was -0.158 E-score.

With GTTCCTCA, the binding signal is -0.315 E-score. For the sequence CACAAGGC, the binding signal was -0.22 E-score. The same measure for AAAATATA: 0.0266 E-score. On to CGGTTACC, for which the binding signal was found to be 0.136 E-score. Regarding CGGACCTC, the binding signal was -0.188 E-score. Regarding CAGATTAG, the binding signal was determined as 0.0645 E-score. For ACCAAAGA the value was -0.0185 E-score; for CTTGTCGC, -0.263 E-score; for GTCATTGA, 0.0717 E-score. Turning to CGAATTAC, the binding signal was -0.175 E-score.

For the sequence GCTTACTA, the binding signal was -0.0331 E-score. Consider GGCCATGA, for which the binding signal turned out to be 0.128 E-score. For AGACGTTC the value was -0.0856 E-score. Regarding ATGGTCGA, the binding signal was -0.0224 E-score. Regarding AAAGACAG, the binding signal was -0.136 E-score.
